# Reference: PubChem BioAssay (Tox21)
# Values joined by “and” are separate entries in the source; they are usually repeats but may differ in a detail not shown here. Identical values can stand only once. The inconclusive results got no clear call from the source; some entries with a clear call stand among them for comparison. For some of these results: Potencies of inconclusive entries are doubtful fits and often do not repeat. A structure can be active in one record and inactive in another. Active and inactive are the calls of the source. Unless noted, calls follow the shape of the full dose curve.
# Experiments:
# [1] = qHTS assay to identify small molecule antagonists of the sonic hedgehog signaling (Shh) pathway (AID 1259369); details: NIH/3T3 Gli1-Luc reporter, Shh antagonist, luminescence 24 h; series mostly up to 92.4 µM; also: nearly all actives have a fitted effect of over 45% in size; also: potency is read from the fitted curve at half-maximal effect; as to activity change, negative = inhibition: % is scaled to controls: 0 for no effect and ±100 for the full control effect
# Summary of the method: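 NIH/3T3-derived Gli1-Luc reporter cells plated 4 h, dosed with compound, then stimulated with conditioned medium for 24 h at 37 C. Firefly luciferase luminescence read after 30 min with detection reagent at room temperature.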
# [2] = biological target: Estrogen receptor beta (Homo sapiens) (UniProt Q92731); test: qHTS assay to identify small molecule agonists of the estrogen receptor beta (ER-beta) signaling pathway (AID 1259377; active = well fitted activation curve with a large enough effect in the signal ratio in the repeat runs, not every such curve was filed as active; inconclusive = weak or mixed curves, or effect the other way; the % refers to the signal ratio; also: potency is read from the fitted curve at half-maximal effect; as to activation: % is scaled to controls: 0 for no effect and ±100 for the full control effect); details: ER-beta-UAS-bla HEK293T, beta-lactamase FRET ratio, 16 h; activation: at 92.4 µM (top of the series) unless noted
# UniProt Q92731, sequence (Q92731 whole entry, looked up): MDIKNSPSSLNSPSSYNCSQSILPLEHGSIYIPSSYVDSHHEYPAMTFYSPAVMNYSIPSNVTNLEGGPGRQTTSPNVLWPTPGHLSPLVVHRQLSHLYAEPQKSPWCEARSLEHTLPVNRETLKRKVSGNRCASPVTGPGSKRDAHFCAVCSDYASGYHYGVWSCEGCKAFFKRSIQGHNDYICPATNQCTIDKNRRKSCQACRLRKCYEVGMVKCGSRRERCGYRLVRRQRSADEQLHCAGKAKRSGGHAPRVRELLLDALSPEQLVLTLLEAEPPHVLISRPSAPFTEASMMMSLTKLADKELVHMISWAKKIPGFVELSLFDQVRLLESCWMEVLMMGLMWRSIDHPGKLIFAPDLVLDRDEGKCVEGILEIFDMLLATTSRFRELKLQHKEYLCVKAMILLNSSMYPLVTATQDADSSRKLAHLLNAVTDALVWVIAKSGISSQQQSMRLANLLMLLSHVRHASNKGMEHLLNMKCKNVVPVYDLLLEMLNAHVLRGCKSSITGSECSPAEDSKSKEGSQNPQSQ
# Summary of the method: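 Beta-lactamase reporter readout: fluorescence of LiveBLAzer B/G FRET substrate after 2 h at room temperature, following 16 h compound treatment of ER-beta-UAS-bla HEK293T cells at 37C in 2% charcoal-stripped FBS medium.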
# [3] = biological target: Progesterone receptor (Homo sapiens) (UniProt P06401); test: qHTS assay to identify small molecule antagonists of the progesterone receptor (PR) signaling pathway (AID 1346795; active = well fitted inhibition curve with a large enough effect in the signal ratio in the repeat runs, not every such curve was filed as active; inconclusive = weak or mixed curves; the % refers to the signal ratio; also: potency is read from the fitted curve at half-maximal effect; as to activity change, negative = inhibition: % is scaled to controls: 0 for no effect and ±100 for the full control effect); details: PR-UAS-bla HEK293T, beta-lactamase FRET ratio, 16 h; activity change, negative = inhibition: at 92.4 µM (top of the series) unless noted
# UniProt P06401, sequence (P06401 whole entry, looked up): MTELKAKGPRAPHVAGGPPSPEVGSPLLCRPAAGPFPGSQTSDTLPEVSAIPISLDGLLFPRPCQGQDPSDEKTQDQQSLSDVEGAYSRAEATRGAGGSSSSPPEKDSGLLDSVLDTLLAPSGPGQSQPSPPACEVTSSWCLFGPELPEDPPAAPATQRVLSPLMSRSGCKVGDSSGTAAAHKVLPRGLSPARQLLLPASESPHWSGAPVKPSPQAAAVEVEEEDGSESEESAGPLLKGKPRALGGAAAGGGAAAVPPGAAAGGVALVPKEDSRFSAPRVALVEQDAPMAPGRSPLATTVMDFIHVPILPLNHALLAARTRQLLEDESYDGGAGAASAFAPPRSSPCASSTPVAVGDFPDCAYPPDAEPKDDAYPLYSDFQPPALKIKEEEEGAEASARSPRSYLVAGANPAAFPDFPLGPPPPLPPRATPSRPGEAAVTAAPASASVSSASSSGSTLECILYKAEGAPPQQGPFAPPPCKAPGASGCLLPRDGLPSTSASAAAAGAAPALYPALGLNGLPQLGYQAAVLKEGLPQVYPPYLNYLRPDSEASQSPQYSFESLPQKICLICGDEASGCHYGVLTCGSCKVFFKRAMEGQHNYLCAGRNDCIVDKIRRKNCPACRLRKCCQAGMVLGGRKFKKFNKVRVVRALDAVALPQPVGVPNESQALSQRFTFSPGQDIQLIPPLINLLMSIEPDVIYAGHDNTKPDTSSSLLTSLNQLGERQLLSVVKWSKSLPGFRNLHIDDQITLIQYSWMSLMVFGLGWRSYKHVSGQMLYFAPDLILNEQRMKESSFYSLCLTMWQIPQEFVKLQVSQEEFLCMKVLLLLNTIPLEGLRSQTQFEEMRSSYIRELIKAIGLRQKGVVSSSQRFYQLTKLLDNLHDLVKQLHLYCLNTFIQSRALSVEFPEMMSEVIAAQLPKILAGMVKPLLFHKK
# Summary of the method: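 Beta-lactamase reporter, HEK293T PR-UAS-bla line; 2% charcoal-stripped FBS; 6 hr pre-incubation, 37C/5% CO2. Compound + R5020 1 nM final, 16 hr. LiveBLAzer B/G FRET substrate, 2 hr RT; fluorescence intensity read.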
# [4] = qHTS assay to identify small molecule agonists of the androgen receptor (AR) signaling pathway in the presence of an antagonist - cell viability counter screen (AID 1259379; active = well fitted curve in the direction sought with a large enough effect in the repeat runs; inconclusive = weak or mixed curves; inactive = no such curve, though single readings can be large; an effect the other way counts as inactive or inconclusive; also: nearly all actives have a fitted effect of over 25% in size; also: potency is read from the fitted curve at half-maximal effect); details: MDA-kb2 viability, CellTiter-Fluor, 16 h; series mostly up to 92.4 µM
# Summary of the method: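 MDA-kb2 cells (MMTV-luciferase, AR/GR), 3,000/well, 5 h attachment, then 3.0 µM nilutamide (final) and compounds at 15 concentrations. Viability by CellTiter-Fluor fluorescence after 16 h at 37 °C, 0% CO2, in the reporter wells.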
# [5] = qHTS assay to identify small molecule agonists of the estrogen receptor alpha (ER-alpha) signaling pathway in the presence of an antagonist - cell viability counter screen (AID 1259386; active = well fitted curve in the direction sought with a large enough effect in the repeat runs; inconclusive = weak or mixed curves; inactive = no such curve, though single readings can be large; an effect the other way counts as inactive or inconclusive;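 also: potency is read from the fitted curve at half-maximal effect; cells exposed to compounds for 22 h at 37 °C before the viability read; nearly all actives have a fitted effect of over 30% in size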); details: VM7Luc4E2 viability, CellTiter-Fluor fluorescence, 22 h; series mostly up to 92.4 µM
# Summary of the method: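 Cell viability in VM7Luc4E2 cells (endogenous full-length ER-alpha) measured by CellTiter-Fluor fluorescence in the same wells as the luciferase screen. Cells pre-cultured 5 days in charcoal-stripped serum, then treated 22 h with compounds at 15 concentrations plus 10.0nM ICI-182,780.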
# [6] = biological target: Estrogen receptor beta (Homo sapiens) (UniProt Q92731); test: qHTS assay to identify small molecule antagonists of the estrogen receptor beta (ER-beta) signaling pathway (AID 1259378; active = well fitted inhibition curve with a large enough effect in the signal ratio in the repeat runs, not every such curve was filed as active; inconclusive = weak or mixed curves, or effect the other way; inactive = no such curve, though single readings can be large or run the other way; the % refers to the signal ratio; also: % is scaled to controls: 0 for no effect and ±100 for the full control effect); details: ER-beta-UAS-bla HEK293T, beta-lactamase FRET ratio, 16 h; activity, negative = inhibition: at 92.4 µM (top of the series) unless noted
# Summary of the method: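 ER-beta-UAS-bla HEK293T (GripTite) cells in 2% charcoal-stripped FBS medium were preincubated 6 hr at 37C, dosed with compound, then stimulated with 1 nM E2 (final) for 16 hr; beta-lactamase reporter read by B/G FRET fluorescence after 2 hr substrate loading.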
# [7] = qHTS assay to identify small molecule agonists of the progesterone receptor (PR) signaling pathway - cell viability counter screen (AID 1346799); details: PR-UAS-bla HEK293T viability, CellTiter-Glo luminescence, 16 h; series mostly up to 92.4 µM; also: nearly all actives have a fitted effect of over 45% in size; also: potency is read from the fitted curve at half-maximal effect
# Summary of the method: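 HEK293T PR-UAS-bla, 3,000 cells/well, 2% charcoal-stripped FBS; 6 h settle, compound 16 h at 37C/5% CO2; LiveBLAzer 2 h RT, then CellTiter-Glo 30 min RT, luminescence read.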
# [8] = qHTS assay to identify small molecule antagonists of the progesterone receptor (PR) signaling pathway - cell viability counter screen (AID 1346798; active = well fitted curve in the direction sought with a large enough effect in the repeat runs; inconclusive = weak or mixed curves; inactive = no such curve, though single readings can be large; an effect the other way counts as inactive or inconclusive; also: potency is read from the fitted curve at half-maximal effect; nearly all actives have a fitted effect of over 50% in size); details: PR-UAS-bla HEK293T viability, CellTiter-Glo luminescence, 16 h; series mostly up to 92.4 µM
# Summary of the method: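 Luminescence readout (CellTiter-Glo, 30 min, RT) of viability in PR-UAS-bla HEK293T cells exposed to compound and R5020 agonist for 16 hr at 37C, 5% CO2; run in the same wells as the beta-lactamase reporter read.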
# [9] = qHTS assay to identify small molecule agonists of the estrogen receptor beta (ER-beta) signaling pathway - cell viability counter screen (AID 1259380; active = well fitted curve in the direction sought with a large enough effect in the repeat runs; inconclusive = weak or mixed curves; inactive = no such curve, though single readings can be large; an effect the other way counts as inactive or inconclusive; also: nearly all actives have a fitted effect of over 30% in size; also: potency is read from the fitted curve at half-maximal effect); details: ER-beta-bla HEK293T viability, CellTiter-Glo luminescence, 16 h; series mostly up to 92.4 µM
# Summary of the method: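 ER-beta-UAS-bla HEK293T cells in medium with 2% charcoal-stripped FBS, pre-incubated 6 hr, then treated 16 hr at 37C. Cytotoxicity read in the same wells by CellTiter-Glo luminescence after 30 min at room temperature.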
# [10] = biological target: Thyrotropin receptor (Homo sapiens) (UniProt P16473); test: qHTS assay to identify small molecule antagonists of the thyroid stimulating hormone receptor (TSHR) signaling pathway (AID 1259385); details: TSHR-HEK293 cAMP HTRF, TSH-stimulated antagonist mode; activity change, negative = inhibition: at 92.4 µM (top of the series) unless noted; also: % is scaled to controls: 0 for no effect and ±100 for the full control effect; nearly all actives have a fitted effect of over 20% in size
# UniProt P16473, sequence (P16473 whole entry, looked up): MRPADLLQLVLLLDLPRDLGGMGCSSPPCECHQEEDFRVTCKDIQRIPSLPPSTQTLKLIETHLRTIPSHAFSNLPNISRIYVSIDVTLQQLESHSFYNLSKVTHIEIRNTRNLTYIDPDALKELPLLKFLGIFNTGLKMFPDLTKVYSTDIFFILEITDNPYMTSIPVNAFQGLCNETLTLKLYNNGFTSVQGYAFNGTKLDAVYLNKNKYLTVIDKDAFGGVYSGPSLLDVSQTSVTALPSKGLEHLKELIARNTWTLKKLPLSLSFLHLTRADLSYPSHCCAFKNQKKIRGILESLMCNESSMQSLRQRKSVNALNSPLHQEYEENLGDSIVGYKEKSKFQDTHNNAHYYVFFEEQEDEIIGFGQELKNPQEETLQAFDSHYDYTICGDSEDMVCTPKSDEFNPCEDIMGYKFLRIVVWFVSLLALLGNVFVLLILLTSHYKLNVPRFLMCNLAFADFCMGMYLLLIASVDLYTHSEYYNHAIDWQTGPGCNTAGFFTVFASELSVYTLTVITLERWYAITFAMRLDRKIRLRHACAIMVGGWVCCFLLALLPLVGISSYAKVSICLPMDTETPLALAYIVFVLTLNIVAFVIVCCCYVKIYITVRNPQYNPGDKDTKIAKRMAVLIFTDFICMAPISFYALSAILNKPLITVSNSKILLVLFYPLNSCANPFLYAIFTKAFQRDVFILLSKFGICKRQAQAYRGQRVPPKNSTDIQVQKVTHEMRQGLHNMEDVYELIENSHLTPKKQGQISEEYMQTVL
# Summary of the method: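 TSHR-HEK293 cells were plated and held 18 h at 37C/5% CO2, then given compound plus Ro20-1724 and stimulated with TSH at 1.5 ng/mL final. After 30 min at room temperature, cAMP was detected with cAMP-d2/anti-cAMP-cryptate (1 h) by fluorescence.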
# [11] = biological target: Progesterone receptor (Homo sapiens) (UniProt P06401); test: qHTS assay to identify small molecule agonists of the progesterone receptor (PR) signaling pathway (AID 1346784); details: PR-UAS-bla HEK293T, beta-lactamase FRET ratio, 16 h; activation: at 92.4 µM (top of the series) unless noted; also: % is scaled to controls: 0 for no effect and ±100 for the full control effect; nearly all actives have a fitted effect of over 30% in size
# Summary of the method: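 HEK 293T PR-UAS-bla reporter cells, 2% charcoal-stripped FBS; 6 hr settle at 37C/5% CO2, compound (DMSO) 16 hr, LiveBLAzer B/G FRET substrate 2 hr RT, fluorescence intensity read.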
# [12] = qHTS assay to identify small molecule antagonists of the TGF-beta/Smad signaling pathway - cell viability counter screen (AID 1346824; active = well fitted curve in the direction sought with a large enough effect in the repeat runs; inconclusive = weak or mixed curves; inactive = no such curve, though single readings can be large; an effect the other way counts as inactive or inconclusive; also: % is scaled to controls: 0 for no effect and ±100 for the full control effect; nearly all actives have a fitted effect of over 50% in size); details: SBE-bla HEK293T viability, CellTiter-Glo luminescence; series mostly up to 76.8 µM
# Summary of the method: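 SBE-bla HEK 293T cells were plated overnight at 37 C, then given compounds in DMSO plus TGF-beta1 (added as 0.25 ng/mL solution) for 5 hr. After the bla read, CellTiter-Glo was added to the same wells and luminescence read after 30 min at room temperature.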
# Tags tell the direction and shape of the fitted curve or compound fluorescence and quenching.
smiles,measurement,setting,value
CC(C)OC(=O)CCC(=O)OC(C)C,Potency,[1],"inconclusive: 68.6 µM [inhibitor, single point]"
same,Potency,[2],inactive
same,Potency,[3],inactive
Cc1ccc(N)c([N+](=O)[O-])c1,Potency,[1],inactive
same,activation,[2],inconclusive: 11.4%
same,Potency,[4],inactive
same,Potency,[5],"inconclusive: 60.4 µM [cytotoxic, partial curve, poor fit]"
same,"activity change, negative = inhibition",[3],inconclusive: -28% and inconclusive: -24.7%
Nc1ccc(-c2ccc(F)cc2)cc1,Potency,[1],inactive
same,activation,[2],inconclusive: 6.11%
same,"activity, negative = inhibition",[6],inconclusive: -31.4%
same,Potency,[3],active: 6.11 µM
same,Potency,[7],inactive
O=S1(=O)CC=CC1,Potency,[1],active: 6.62 µM and inactive
same,Potency,[6],inactive
CCC(C(=O)OCCN1CCOC(c2ccccc2)C1C)c1ccccc1 (stereo not given),Potency,[1],"inconclusive: 18.8 µM [inhibitor, partial curve]"
same,Potency,[2],"inconclusive: 33.5 µM [activator, single point]"
same,"activity, negative = inhibition",[6],inconclusive: -40.9% [at 42.5 µM]
same,Potency,[3],active: 23.7 µM
same,Potency,[8],"inconclusive: 13.3 µM [rising, partial curve, poor fit]"
same,Potency,[7],"inconclusive: 29.8 µM [rising, partial curve]"
CC(C)O,Potency,[1],active: 29.3 µM
same,Potency,[2],inactive
same,"activity change, negative = inhibition",[3],inconclusive: -41.1%
same,Potency,[8],"inconclusive: 73.6 µM [cytotoxic, single point]"
Cc1ccc(C(=O)C(C)CN2CCCCC2)cc1 (stereo not given),Potency,[1],inactive
same,Potency,[2],inactive
same,Potency,[3],inactive
CC1=CCCC(C)(C)C12CCC(C)O2 (stereo not given),Potency,[1],"inconclusive: 9.69 µM [inhibitor, full curve, poor fit]"
same,Potency,[2],inactive
same,Potency,[4],inactive
same,Potency,[9],inactive
same,Potency,[10],inactive
same,activation,[11],inconclusive: 16.5%
CC(CCO)CC(C)(C)C (stereo not given),Potency,[1],"inconclusive: 5.6 µM [inhibitor, single point]"
same,activation,[2],inconclusive: 8.3%
same,Potency,[12],inactive
CN1[C@@H]2CC[C@H]1CC(OC(=O)c1c[nH]c3ccccc13)C2 (stereo not given in full),Potency,[1],"inconclusive: 16.8 µM [inhibitor, partial curve]"
same,activation,[2],inconclusive: 5.84% [at 42.5 µM]
same,Potency,[7],"inconclusive: 16.8 µM [cytotoxic, partial curve, poor fit]"
c1ccc(OCc2ccc(CCCN3CCOCC3)cc2)cc1,Potency,[1],"inconclusive: 33.5 µM [inhibitor, partial curve, poor fit]"
same,Potency,[2],inactive
same,Potency,[4],active: 29.8 µM
same,Potency,[5],"inconclusive: 11.9 µM [cytotoxic, partial curve, poor fit]"
same,Potency,[3],"inconclusive: 33.5 µM [falling, partial curve, poor fit]"
same,Potency,[8],"inconclusive: 18.8 µM [rising, partial curve]"
same,Potency,[7],"inconclusive: 18.8 µM [rising, partial curve]"
CCN1CCCC1=O,Potency,[1],"inconclusive: 0.119 µM [inhibitor, single point]"
same,Potency,[2],inactive
same,Potency,[4],inactive
CCNC(=S)NCC,Potency,[1],inactive
same,activation,[2],inconclusive: 10%
same,Potency,[6],inactive
same,"activity change, negative = inhibition",[3],inconclusive: 6.48%
same,Potency,[7],inactive
CCOC(=O)c1cnc2c(cnn2CC)c1NN=C(C)C,Potency,[1],inconclusive: 1.68 µM [inhibitor]
same,"activity, negative = inhibition",[6],inconclusive: 10.8% [at 42.5 µM]
O=C(c1ccccc1)c1ccc(O)c(O)c1O,Potency,[1],"inconclusive: 61.1 µM [inhibitor, single point]"
same,Potency,[2],"inconclusive: 13.8 µM [fluorescent, full curve] and inconclusive: 13.7 µM [fluorescent, full curve]"
same,Potency,[4],"inconclusive: 61.6 µM [cytotoxic, partial curve] and inconclusive: 54.5 µM [cytotoxic, partial curve]"
same,Potency,[9],"inconclusive: 38.6 µM [cytotoxic, partial curve]"
same,Potency,[5],"active: 61.6 µM and inconclusive: 61.1 µM [cytotoxic, partial curve]"
same,"activity change, negative = inhibition",[3],inconclusive: -32.2% and inconclusive: -30.5%
NS(=O)(=O)c1cc(-c2nn[nH]n2)c(NCc2cccs2)cc1Cl,Potency,[1],inactive
same,"activity, negative = inhibition",[6],inconclusive: -10.6% [at 42.5 µM]
CC(C)c1ccccc1,Potency,[1],"inconclusive: 31.8 µM [inhibitor, full curve]"
same,Potency,[2],inactive
same,"activity change, negative = inhibition",[3],inconclusive: -26.8%
same,Potency,[8],"inconclusive: 71.2 µM [cytotoxic, single point]"
same,Potency,[7],"inconclusive: 28.3 µM [rising, single point]"
